Test results published in PubChem BioAssay AID1030 (National Center for Advancing Translational Sciences (NCATS), 2008).
Screen size: about 220,000 compounds; about 16,000 (7.3%) were called active. Inconclusive means that the source gave no clear call. Such entries were picked first, then a sample of the others. Calls come from the whole dose curve; as a rule, active = well fitted inhibition curve with a large enough effect (not every such curve was filed as active); inconclusive = small, poorly fitted or top-dose-only effect, or another doubt; inactive = no such curve, though single readings can be large or run the other way. Potencies of inconclusive entries are left out as doubtful fits.

The compounds below were run against Aldehyde dehydrogenase 1A1 (Homo sapiens) (UniProt P00352) (assay: qHTS Assay for Inhibitors of Aldehyde Dehydrogenase 1 (ALDH1A1)). Details: Purified ALDH1A1, NADH fluorescence, propionaldehyde substrate; series mostly up to 75.3 µM.
Potency is the fitted concentration of half-maximal effect; tags give direction and shape of the fitted curve.
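Throughout, for activity, negative = inhibition: plate controls were no enzyme wells and a reference inhibitor.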

Sequence of UniProt P00352 (P00352 whole entry, looked up): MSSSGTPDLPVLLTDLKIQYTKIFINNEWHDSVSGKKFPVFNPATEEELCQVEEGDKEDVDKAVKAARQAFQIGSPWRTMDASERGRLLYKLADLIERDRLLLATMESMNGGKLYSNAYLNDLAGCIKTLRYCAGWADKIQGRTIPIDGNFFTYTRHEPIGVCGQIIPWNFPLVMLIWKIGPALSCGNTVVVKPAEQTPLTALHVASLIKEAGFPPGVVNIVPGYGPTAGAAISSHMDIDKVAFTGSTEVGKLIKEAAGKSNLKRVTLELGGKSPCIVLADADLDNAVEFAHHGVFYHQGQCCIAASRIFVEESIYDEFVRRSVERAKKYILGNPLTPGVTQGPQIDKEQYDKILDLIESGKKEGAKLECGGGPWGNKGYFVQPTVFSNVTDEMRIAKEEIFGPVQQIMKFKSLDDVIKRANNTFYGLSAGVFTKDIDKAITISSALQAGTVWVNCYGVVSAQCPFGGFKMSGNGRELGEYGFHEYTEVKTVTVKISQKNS

Compound	activity, negative = inhibition	Potency
CCN1C(=O)N[C@@H](CCc2ccccc2)C(C(=O)OC)=C1C	inactive: 5.7% [at 13.5 µM]	
CCOC(=O)CSc1nc2c(c(=O)[nH]c(=O)n2C)n1CCc1ccccc1		inconclusive [inhibitor, full curve]
COc1cc2ccccc2cc1C(=O)Nc1ccc(Cc2ccncc2)cc1		inconclusive [inhibitor, single point]
NC(=O)c1cc2cc(Cc3ccccc3Cl)ccc2oc1=O		inconclusive [inhibitor, single point]
CCN1c2ccccc2-c2nc3ccccc3n2C1c1cccs1 (configuration not stated)		inconclusive [inhibitor, partial curve]
O=[N+]([O-])c1cc(S(=O)(=O)N2CCCCCC2)ccc1Cl		inactive
C/C=C/c1ccc2oc(-c3ccc(O)cc3)c(C)c2c1		inconclusive [inhibitor, single point]
O=C(CSc1ccc(-c2ccccn2)nn1)N1CCCC1		inactive
CCOC(=O)c1cc2c(=O)n3ccccc3nc2n(Cc2ccco2)c1=NC(=O)c1cccc(OC)c1		inconclusive [inhibitor, partial curve]
Cc1cccc(NC(=S)NNC(=O)c2sccc2C)c1		inconclusive [inhibitor, single point]
CS(=O)(=O)c1ccc2nc(NC(=O)c3ccc(Cl)nc3)sc2c1		inconclusive [inhibitor, single point]
Cc1nc(SCC(=O)NCc2ccco2)c2c(=O)n(C)c(=O)n(CC(C)C)c2n1		inactive
NS(=O)(=O)c1ccc(CCNC(=O)CSc2nc3ccccc3c3nc(CCN4CCCCC4)nn23)cc1		inconclusive [inhibitor, partial curve]
N#Cc1ccc(/C=C/C(=O)c2ccccc2)cc1		active: 8.91 µM
CCOC(=O)C1=C(C)NC2=C(C(=O)CC(C)(C)C2)C1c1ccc(N(C)C)cc1 (configuration not stated)		inconclusive [inhibitor, single point]
O=C1OC(NC(=O)c2ccccc2)C(n2cc(CO)nn2)=C1Cl (configuration not stated)		active: 12.6 µM
CCOC(=O)c1ccc(NC(=O)CCc2c(C)nc3ncnn3c2C)cc1		inconclusive [inhibitor, single point]
O=C1C2CCCN2C(c2ccccc2)N1c1cccc(Cl)c1 (configuration not stated)		inactive
O=C(NN1C(=O)C2C3C=CC(C4CC34)C2C1=O)c1ccc(Cl)cc1 (configuration not stated)		inconclusive [inhibitor, single point]
COc1ccc(S(=O)(=O)n2nc(OC(=O)c3ccncc3)cc2N)cc1		inactive
COc1ccc(N(C(=O)c2ccco2)C(C(=O)NC2CCCC2)c2cccs2)cc1 (configuration not stated)		inactive
COc1cccc(/C=N/NC(=O)Cn2nc(C)c([N+](=O)[O-])c2C)c1O		inactive
CN1CCN(C(CNS(=O)(=O)c2ccc(F)cc2)c2cccnc2)CC1 (configuration not stated)		inactive
COC(=O)Cn1cc(/C=N/NC(=O)COc2cccc3cccnc23)c2ccccc21		inconclusive [inhibitor, single point]

Compound	activity, negative = inhibition	Potency
COc1cc2c(cc1NC(=O)CSc1nc3ccccc3[nH]1)oc1ccccc12		inconclusive [inhibitor, single point]
Cc1cccc(C(=O)Nc2cccc(-c3ccc4nncn4n3)c2)c1		inactive
Cc1ccc(/C=N/Nc2cccc(C(=O)O)c2)s1		inactive
COc1ccc(-c2cccc(-c3cc(=O)oc4cc5c(cc34)OCO5)c2)cc1		inconclusive [inhibitor, single point]
CCc1ccc(Nc2ncccc2C#N)cc1		inactive
CCOC(=O)CC1C(=O)NCCN1Cc1cccc(OC)c1 (configuration not stated)		inactive
NS(=O)(=O)c1ccc(CCNC(=O)CSc2cccs2)cc1		inconclusive [inhibitor, single point]
Cc1ccccc1NC(=O)Cn1nnc2c(cnn2-c2ccc(F)cc2)c1=O		inactive
Cc1ccc(OC(=O)c2ccc3snnc3c2)cc1		inconclusive [inhibitor, single point]
CN(C)c1ccc(/C=N/NC(=O)c2ccc3nc[nH]c3c2)cc1		active: 17.8 µM
Oc1ccc(N2CCN(C(c3cccnc3)c3nnnn3Cc3ccccc3)CC2)cc1 (configuration not stated)		inconclusive [inhibitor, single point]
COC(=O)C1C(=O)NC(SC)=C(C#N)C1c1ccccc1F (configuration not stated)		inconclusive [inhibitor, full curve]
CSc1nc(-c2ccco2)nn1C(=O)c1cccs1		inconclusive [inhibitor, partial curve]
CCCCN(C)C(=O)CS(=O)(=O)Cc1nc(-c2cccc(OC)c2)oc1C		inconclusive [inhibitor, single point]
C/C(N)=C(/C#N)C(=O)COC(=O)CCCNC(=O)c1ccc(Cl)cc1		inactive
O=C(O)c1ccc(Nc2nc3c(s2)CCCC3)cc1		inactive
COc1ccc(-c2nc3ccccc3c(=O)n2CCOc2cccc(C)c2C)cc1		inconclusive [inhibitor, single point]
C=CCn1c(SCC(=O)NCCCC(=O)OCC)nc2scc(-c3ccco3)c2c1=O		inconclusive [inhibitor, single point]
Cc1cccc(OCC(=O)N/N=C/c2cc([N+](=O)[O-])ccc2N2CCOCC2)c1		inconclusive [inhibitor, single point]
COc1ccc(S(=O)(=O)n2ccc(-c3cnc(-c4ccccc4)s3)n2)cc1		inconclusive [inhibitor, partial curve]
CCSC1=NC(C)(C)C=C(/C=C/c2ccc(Cl)cc2Cl)N1		inactive
Cc1cc(=O)oc2cc(OCC(=O)NCc3ccncc3)ccc12		inconclusive [inhibitor, partial curve]
CCCCn1c(=O)[nH]c(=O)c2c1nc(-c1ccc(-c3ccccc3Br)o1)n2CCOC		inconclusive [inhibitor, single point]
